Laboratory results reported in the supplement of paper PMC12645437, “Orthogonal IMiD-Degron Pairs Induce Selective Protein Degradation in Cells” (ACS Chemical Biology, 2025).
The other results are listed elsewhere or left out.

Biological target: no compound (DMSO)
Test: log2 fold change of degron read counts, EGFP-low vs EGFP+ sorted cells; higher = lower degron-EGFP level without compound (poor expression or instability)
Conditions: compound: DMSO control; 18 h
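Note: jurkat cells carrying a lentiviral library of mutant zinc finger degrons fused to EGFP plus mCherry, mCherry+ cells FACS sorted, degron abundance counted by next-generation sequencing.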

Row | Sequence | log2 fold change of degron read counts
1 | FKCEICGHAFTQKGNLLRHIKL | -1.88
2 | FICPICGHQFTQKGNLLRHIKL | -0.467
3 | FKCEICGHWFTQKGNLLRHIKL | -0.294
4 | FICPICGRHFTQKGNLLRHIKL | -0.148
5 | FECPICGHLFTQKGNLLRHIKL | -0.777
6 | FDCDVCGASFTQKGNLLRHIKL | -2.42
7 | FVCPICGRWFTQKGNLLRHIKL | 0.503
8 | FWCEICGHRFTQKGNLLRHIKL | -0.431
9 | LVCNQCGFCCTQKGNLLRHIKL | 0.156
10 | LNCPICGFCCTQKGNLLRHIKL | 0.829
11 | FKCNQCGAHFTQKGNLLRHIKL | -0.62
12 | LDCPICGFACTQKGNLLRHIKL | 0.439
13 | FMCEICGASFTQKGNLLRHIKL | -0.833
14 | FWCEVCGARFTQKGNLLRHIKL | -0.493
15 | FMCEICGHVFTQKGNLLRHIKL | -0.666
16 | FWCNQCGHGFTQKGNLLRHIKL | 0.899
17 | LKCEICGFTCTQKGNLLRHIKL | -0.837
18 | LKCEICGFQCTQKGNLLRHIKL | -0.541
19 | FWCDICGASFTQKGNLLRHIKL | -1.72
20 | FKCPICGRQFTQKGNLLRHIKL | -0.589
21 | FNCEICGHRFTQKGNLLRHIKL | -0.805
22 | LYCNQCGFCCTQKGNLLRHIKL | 1.17
23 | LHCNQCGFGCTQKGNLLRHIKL | 1.06
24 | FNCPICGRRFTQKGNLLRHIKL | -0.312
25 | LCCEICGFQCTQKGNLLRHIKL | -1.3

Row | Sequence | log2 fold change of degron read counts
26 | LQCNQCGFMCTQKGNLLRHIKL | 0.341
27 | FMCNQCGALFTQKGNLLRHIKL | 0.226
28 | FYCNQCGAFFTQKGNLLRHIKL | 0.703
29 | FCCEICGRFFTQKGNLLRHIKL | -0.424
30 | FCCNVCGAGFTQKGNLLRHIKL | -0.224
31 | FVCNQCGHMFTQKGNLLRHIKL | -0.608
32 | FWCEICGHSFTQKGNLLRHIKL | -0.679
33 | FGCPVCGADFTQKGNLLRHIKL | -0.618
34 | FCCEICGRKFTQKGNLLRHIKL | -3.08
35 | FRCNVCGAAFTQKGNLLRHIKL | 0.21
36 | FLCEICGHRFTQKGNLLRHIKL | -1.81
37 | FACPICGRMFTQKGNLLRHIKL | 0.0703
38 | FYCPICGRMFTQKGNLLRHIKL | -3.09
39 | FQCEICGHQFTQKGNLLRHIKL | -2.15
40 | FLCEICGRVFTQKGNLLRHIKL | -1.86
41 | FCCNQCGHMFTQKGNLLRHIKL | -0.475
42 | FICEICGRAFTQKGNLLRHIKL | -2.49
43 | FMCPICGAEFTQKGNLLRHIKL | -0.357
44 | FSCNQCGRLFTQKGNLLRHIKL | -0.491
45 | FSCEICGRYFTQKGNLLRHIKL | -0.526
46 | FLCNVCGAWFTQKGNLLRHIKL | 0.661
47 | FHCEQCGASFTQKGNLLRHIKL | -2.33
48 | LFCNQCGFECTQKGNLLRHIKL | 0.457
49 | LMCPICGFGCTQKGNLLRHIKL | 1.36
50 | FFCPICGREFTQKGNLLRHIKL | -0.322
